In all, about 44,000 compounds went through this assay and about 340 (0.77%) were called active. Inconclusive results (about 5%) are left out. Calls follow the shape of the dose curve; as a rule, active = well fitted inhibition curve with a large enough effect; inconclusive = small, poorly fitted or top-dose-only effect; inactive = flat fitted curve, though single readings scatter. Some of the results follow.
Experiment: Acumen qHTS Assay for Inhibitors of the mTORC1 Signaling Pathway in MEF (Tsc2-/-, p53-/-) Cells: Sytravon; also: nearly all actives have a fitted effect of over 50% in size;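 as to activity change, negative = inhibition: plate controls were DMSO for no effect and rapamycin for full effect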
Conditions: phospho-rpS6 immunofluorescence/PI, 24 h; series mostly up to 38.3 µM; activity change, negative = inhibition: at the top concentration
Summary of the method: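 Read-out: phospho-S6 Alexa-488 intensity over PI intensity per well, scored as % active cells using thresholds from rapamycin (7.5 nM) and DMSO controls. Tsc2-/-, p53-/- MEFs exposed to compound for 24 h; PI cell count recorded as viability.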
Potency is read from the fitted curve at half-maximal effect.

Compound | activity change, negative = inhibition | Potency
Cc1cccc(N2CCN(C(=O)CS(=O)(=O)c3cccc4nsnc34)CC2C)c1 (centres undefined) | inactive: -9.21% | –
CCCN1C(=O)C2(c3ccccc31)c1c(oc3ccccc3c1=O)C(=O)N2CCO (centres undefined) | inactive: 2.78% | –
CC(C)(C)OC(=O)N1CCC(c2c(C(=O)N3CCCCC3)cnn2-c2ccccc2Cl)CC1 | inactive: 3.39% | –
Cn1c(=O)oc2cc(S(=O)(=O)CCC(=O)NCCc3ccc(Cl)cc3)ccc21 | inactive: -10.6% | –
COc1ccc(NCc2cc3cc4c(cc3n(CC(=O)Nc3ccc(C)c(C)c3)c2=O)OCO4)cc1 | inactive: -6.59% | –
COc1ccccc1OCc1nc(C#N)c(NCc2ccc(C)cc2)o1 | inactive: -2.78% | –
Cn1c(=O)c2sccc2n2c(CCCC(=O)NC3CCCCC3)nnc12 | inactive: 2.19% | –
Cc1ccc(Cl)cc1N1CCN(S(=O)(=O)c2cc(Br)cc3c2N(C(=O)C2CC2)CC3)CC1 | inactive: -12% | –
COc1ccc(-c2nn(-c3ccccc3)cc2C2NC(=O)NC(C)=C2C(=O)OC(C)C)cc1Cl (centres undefined) | inactive: 4.85% | –
CC(=O)Nc1ccc(NC(=O)C(Cc2ccccc2)NS(=O)(=O)c2ccc3c(c2)oc(=O)n3C)cc1 (centres undefined) | inactive: -3.89% | –
CCOC(=O)CC(NC(=O)CCc1c(C)nc2c(c1C)c(=O)n(C)c(=O)n2C)c1ccc(OCC)c(OC)c1 (centres undefined) | inactive: -0.212% | –
CC(C)c1ccc(NS(=O)(=O)c2ccc3[nH]cc(C(=O)NCCc4ccccc4)c(=O)c3c2)cc1 | inactive: -11.6% | –
CCOC(=O)c1cc(-c2ccc(F)cc2)n(CCC(=O)Nc2nc3ccc(OC)cc3s2)c1C | inactive: -12.6% | –
COc1ccc(S(=O)(=O)N(CC(=O)Nc2cc(Cl)ccc2C)Cc2ccccc2)cc1OC | inactive: 18% | –
Cc1ccc(-n2nc(C)c3c(C)cc(=O)n(CC(=O)NC(C)c4ccccc4)c32)cc1 (centres undefined) | inactive: -6.18% | –
CCOc1cc(-c2ccc(OC(=O)c3ccc(OC)cc3)c(OC)c2)cc(=O)c2c(C)oc(C)c12 | inactive: -3.46% | –
CCn1nc(C)c2c(-c3ccccc3)cc(=O)n(C(C)C(=O)NCCc3ccc(OC)c(OC)c3)c21 (centres undefined) | inactive: 0% | –
O=S(=O)(c1ccc(Cl)cc1)c1nnn2c1nc(NCc1ccc3c(c1)OCO3)c1sccc12 | inactive: 3.32% | –
Cc1ccc(N(CC(=O)Nc2cc(C)ccc2C)S(=O)(=O)c2c(C)noc2C)cc1 | inactive: -3.22% | –
CCCCN(CC)CCNC(=O)C1CCCN(c2ncnc3onc(C)c23)C1 (centres undefined) | inactive: 0.365% | –

Compound | activity change, negative = inhibition | Potency
COc1ccc(-n2c(SCC(=O)c3ccccc3)nc3c([nH]c4ccccc43)c2=O)cc1 | inactive: -5.57% | –
CCOc1ccccc1NC(=O)C1CCN(S(=O)(=O)c2ccc3c(c2)CCCN3C(C)=O)CC1 | inactive: -0.758% | –
Cc1ccc(COC(=O)c2[nH]c3c(c2C)C(=O)CC(c2ccc(N(C)C)cc2)C3)cc1 (centres undefined) | inactive: -4.64% | –
CC(=O)c1ccc(NC(=O)c2ccc(-n3cnnc3)cc2)cc1 | inactive: -6.02% | –
CCC(=O)N1c2ccccc2CC1C(=O)NCc1ccc(N(C)C)cc1 (centres undefined) | inactive: 4.33% | –
CCOc1ccc(C(=O)c2oc3ccccc3c2NC(=O)c2cc(-c3ccc(Cl)cc3)on2)cc1 | inactive: 0.438% | –
COc1ccc(-c2nnc(SCC(=O)N(C)C3CCCCC3)o2)cc1OC | inactive: 1.4% | –
O=c1oc2c3c(ccc2c2ccccc12)OCN(Cc1ccccc1Cl)C3 | inactive: 2.25% | –
O=S(=O)(NCC(c1ccco1)S(=O)(=O)c1cccs1)c1ccc(Cl)cc1 (centres undefined) | – | active: 18.5 µM
CN(Cc1ccccc1)c1ncnc2c1nnn2C | inactive: -20.3% | –
COC(=O)c1sccc1S(=O)(=O)N(CC(=O)Nc1ccccc1F)c1ccccc1 | inactive: -8.81% | –
Cc1ccc(CSCCC(=O)NCc2ccc(F)cc2Cl)cc1 | inactive: -22.1% | –
Cc1ccc(C(=O)NCCc2ccc(S(N)(=O)=O)cc2)cc1-n1cnc2cccnc21 | inactive: -5.73% | –
Cc1cccc(C(=O)n2nc(-c3cccnc3)nc2NCc2ccccc2)c1 | inactive: -9.81% | –
CCn1cc(C(=O)NCCCOC)c(=O)c2cc(S(=O)(=O)N3CCCC3)ccc21 | inactive: -6.99% | –
Cc1ccc(NC(=O)Nc2ccccc2OCc2cc(=O)n3ccccc3n2)c(Cl)c1 | inactive: -6.34% | –
O=C(CCCCn1c(=O)c2ccccc2n(CC(=O)Nc2ccc(F)cc2F)c1=O)NCCc1ccccc1 | inactive: 2.34% | –
COC(=O)c1c(NC(=O)Cc2coc3ccc(C(C)C)cc23)sc2c1CCC2 | inactive: -19.8% | –
CCOc1ccccc1NC(=O)CCNS(=O)(=O)c1cccc2nonc12 | inactive: 0.116% | –
CCOc1ccccc1NC(=O)C1CCCN1S(=O)(=O)c1ccc2c(c1)C(C)(C)C(=O)N2C (centres undefined) | inactive: -1.59% | –

Compound | activity change, negative = inhibition | Potency
COc1cc(C(=O)Nc2ccc3c(c2)N(C2CCCC2)C(=O)c2ccccc2S3)cc(OC)c1OC | inactive: 0.279% | –
COc1ccc(NC(=O)N2CCOc3ccc(Cl)cc32)cc1 | inactive: 2.37% | –
Cc1cc(NC(=O)c2ccc3c(c2)OCCO3)cc(-c2nc3ccccc3o2)c1O | inactive: -10.8% | –
CCOC(=O)c1c(NC(=O)c2cc3nc(-c4ccc(Br)cc4)cc(C(F)(F)F)n3n2)sc(C(C)=O)c1C | inactive: -2.56% | –
CCC(C(=O)NCc1ccc(OC)c(OC)c1)n1nc(C)c2c(C)n(-c3ccc(C)cc3)nc2c1=O (centres undefined) | inactive: -2.62% | –
COc1ccc(Cc2nc3c4cnn(-c5ccccc5F)c4ncn3n2)cc1 | inactive: -3.03% | –
COc1ccc(Cl)cc1N(C)C(=O)c1cc2c(=O)oc3ccc(C)cc3c2s1 | inactive: -8.76% | –
CCCCNC(=O)c1cc(-c2ccc(OC)cc2)nc2n[nH]c(-c3cccc([N+](=O)[O-])c3)c12 | inactive: -5.36% | –
CCc1ccccc1NC(=O)CN1CCCN(Cc2cc(C)ccc2C)S1(=O)=O | inactive: -14.1% | –
CCOC(=O)c1ccccc1NC(=O)CN1CCCN(Cc2cccc(Cl)c2)S1(=O)=O | inactive: 1.53% | –
CCc1ccc(NC(=O)CCNS(=O)(=O)c2ccc3c(c2)oc(=O)n3C)cc1 | inactive: 0.305% | –
Cc1ccc(-n2nc(C)c3c(C(=O)NCCc4ccccc4)cc(C)nc32)cc1 | inactive: 4.3% | –
Cc1ccc(CNC(=O)c2ccc3c(c2)nc2n3CCOC2)cc1 | inactive: 0% | –
CCN(CC)c1ccc(C(=O)NCc2ccc3c(c2)CCN3C(=O)c2ccc(F)cc2)cc1 | inactive: -7.02% | –
COc1ccc(C(C)=O)cc1CSc1nc(NCCc2ccccc2)c2ccccc2n1 | inactive: -1.92% | –
COc1ccc(C(=O)NNc2ncnc3c2cnn3-c2cccc(Cl)c2)cc1OC | inactive: -9.79% | –
Cc1ccc(NC(=O)C2CCN(S(=O)(=O)c3c(C)noc3/C=C/c3cccs3)CC2)cc1F | inactive: 1.64% | –
CCCS(=O)(=O)c1c(S(=O)(=O)CCC)c2cc(CC)ccn2c1C(=O)c1ccc(Cl)cc1 | inactive: -15% | –
Cc1cccc(N(CC(=O)NCCSCc2cccc(Cl)c2)S(=O)(=O)c2ccccc2)c1C | inactive: -8.16% | –

— PubChem BioAssay AID493208 (National Center for Advancing Translational Sciences (NCATS), 2011)
